# Test results reported in the supplement of paper PMC10338343.
# ± gives the standard deviation. In all, about 6,600 sequences were measured (“pre-steady-state target cleavage rate”: median about 0.07, highest 2% from about 0.72 on). This is a selection; strong and weak results do not stand in their true shares.
# System: MIWI (PIWIL1) piRISC loaded with Kctd7 piRNA (30 nt)
# Assay: pre-steady-state target cleavage rate (min^-1); MIWI and MILI are mouse PIWI proteins and EfPiwi is from a freshwater sponge; tags in brackets are library labels; higher = faster piRNA-guided slicing of the target
# Details: guide: Kctd7 piRNA 5'p-UGUUAAUCUCUCAGAGAAGGUGACAGUGAU; auxiliary factor: 500 nM mouse GTSF1
# Procedure, shortened: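 A burst-and-steady-state fit was used to obtain the pre-steady-state cleavage rate. The input data were sequencing reads of uncleaved targets, normalised to depth and to weakly complementary targets, from a […] transcribed, DNA-blocked target RNA library mixed with 1 nM active affinity-purified piRISC holding one synthetic guide, with or without 500 nM GTSF1 partner protein, in HEPES–potassium acetate buffer at 33 °C for 0–8 or 0–960 min. Three trials were pooled and k3 was capped at 0.0001 min^-1.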
# 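Further: 1 nM active piRISC with 0.1 nM target library at 33 °C single turnover.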
row,Sequence,pre-steady-state target cleavage rate
1,UACACUGAGUCCUUCUCUGAGAGAUUAAGA,0.0483 ± 0.01
2,UACACUGUCACGUUCUCUGAGACAUUAACA,0.0124 ± 0.0036
3,UAGUGACUCAGCUUCUCUGAGAGUUUAACA,0.0478 ± 0.0085
4,UAGACAUGUCACCUUCUCUGAGAGAUUAACA,0.517 ± 0.024
5,UAGUGACAGACCUUCAUCUGAGAGAUUAACA,0.00476 ± 0.003
6,UAGUGAGUACACCUUCUCUGAGAGAUUAACA,0.645 ± 0.039
7,AACACUGUCACCUUCACUGAGAGAUUAACA,0.541 ± 0.025
8,AUCACUGUCACCUUCUCUGAGUGAAUAACA,0.0149 ± 0.0068
9,AUCACUGUCACCUUCCUGAGAGAUUAACA,0.158 ± 0.036
10,UAGACUGUCACCUUGUCAGAGAGAUUAACA,0.1 ± 0.0087
11,UAGUGACUCACCUUCUCUGAGAGAUUUUGA,0.0514 ± 0.016
12,UACACUGUCACCUUCUCUGAGGGAUUAACA,0.611 ± 0.033
13,UAGUGUGUCACCUACUCUGAGAGAUUAACA,0.598 ± 0.054
14,UACACUGACACCUUCACUGAGAGAUUAACA,0.412 ± 0.025
15,UACAGUGUCACCUUCUCUGAGAGAUUUUGA,0.199 ± 0.049
16,UAGUGACAGACCUUCUCUCAGAGAUUAACA,0.00976 ± 0.0036
17,UAGUGUGUCACCUUCUCGUGAGAGAUUAACA,0.0062 ± 0.0045
18,UACACUAGUCACCUUCUCUGAGAGAUUAACA,0.663 ± 0.029
19,UAGACUGUCACCAUCUCUGACAGAUUAACA,0.0599 ± 0.014
20,UAGUGACAGUGGAACUCUGAGAGAUUAACC [g2:g16:cont:t1C],< 0.0001
21,UAGACUGUCUCCUUCUCUGAGAGAUUAUCA,0.311 ± 0.037
22,UAGUGUGUCACCUUCUGAGAGAGAUUAACA,0.074 ± 0.011
23,AUCACUGAGACCUUCUCUGAGAGAUUAUGA,0.08 ± 0.02
24,UACACUGUCACCUUCUCUGUGAGAUUAACA,0.208 ± 0.013

row,Sequence,pre-steady-state target cleavage rate
1,UAGUCUGUCACCUUCACUGACAGAUUAACA,0.00597 ± 0.0035
2,UAGUGACUCACCUUGUGUGAGAGAUUAACA,0.0243 ± 0.0049
3,UAGACUGUGACCUACUCUGAGAGAUUAACA,0.422 ± 0.033
4,AUGUCUGUCACCUUCUCUGAGAGAUUAAGA,0.126 ± 0.019
5,UUCACUGUCACCUUCUCUGAGAGAAUUUGA,0.391 ± 0.094
6,UAGUGACAGUGGAACUCUGAGAGAUAUACA,< 0.0001
7,UUCACUGUCACCUUCUCUGAGAGCUUAACA,0.197 ± 0.02
8,UUCACUGUCACCUUCUCUGAGAGAUAAAGA,0.0545 ± 0.011
9,UAGUGAGUGACCUUCUCUGAGAGAUUAAGA,0.209 ± 0.046
10,UAGUCUGUCUCCUUCUCUGAGAGAUUAACA,0.576 ± 0.031
11,UAGUGACACACCUUGUCUGAGACAUUAACA,0.156 ± 0.036
12,UAGACUGUCACCUUCUCUGUGAGUUUAACA,0.122 ± 0.01
13,AUCACUGUCACCUUCUCUGACAGAAUAACA,0.0274 ± 0.0084
14,UAGUGACAGACCUUCUCUGAGAGACUUAACA,0.0174 ± 0.0053
15,UAGUAUGUCACCUUCUCUGAGAGAUUAACA,0.635 ± 0.029
16,AUCACUGUCACCUUCUAUGAGAGAUUAACA,0.244 ± 0.021
17,AUCACUGACUCCUUCUCUGAGAGAUUAACA,0.593 ± 0.039
18,UAGUGACAGACCUUUCUGAGAGAUUAACA,0.0047 ± 0.0046
19,UAGACUGUGAGCUUCUCUGAGAGAUUAACA,0.276 ± 0.02
20,UAGUGACUCACCUUCUCUGAGAGAUUACA,0.0834 ± 0.018
21,AUCACUGUCACCUUCUCUGAGAGUUUAUGA,0.528 ± 0.12
22,UUCACUGUCACCUUCUCAGAGAGAUAUUGA,0.029 ± 0.013
23,UUCACUGCCACCUUCUCUGAGAGAUUAACA,0.611 ± 0.023
24,UAGUGAGUCACCUUCUCUGAGUGAUUAACA,0.037 ± 0.0072

row,Sequence,pre-steady-state target cleavage rate
1,UUCACUGUCACCUUCUGUGAGACAUUAACA,0.144 ± 0.016
2,UAGUGACACACCUUCUCUGAGAGGUUAACA,0.159 ± 0.018
3,UAGUGAGUCACCUUCUGUGAGACAUUAACA,0.13 ± 0.019
4,UAGUGUGUCACCUACACUGAGAGAUUAACA,0.315 ± 0.037
5,UACACUGUCACCUUCACUGAGAGAUUAACA,0.406 ± 0.035
6,UAGUGACAGUACUUCUCUGAGAGAUUAACA,0.0173 ± 0.0027
7,UUCACAGUCACCUUCUCUGAGAGAAUAACA,0.384 ± 0.054
8,UAGACACUCACCUUCUCUGAGAGAUAUUGA,0.0515 ± 0.011
9,AUCACUGUCACCUUCUCAGAGAGAUUAAGA,0.106 ± 0.022
10,UAGUGUGUCACCUUCACUCAGAGAUUAACA,0.036 ± 0.01
11,UAGACUGUCACCUUCUUGAGAGAUUAACA,0.0221 ± 0.0078
12,UAGUGACAGACCUUCUCUGAGAGCUUAACA,0.0423 ± 0.0069
13,UACACUGUCACCUUCUCUGAGAGUUUAACA,0.365 ± 0.058
14,AUCACUGUCACCUACUCUGAGACAUUAACA,0.0631 ± 0.012
15,UAGUGACACACGUUCUCAGAGAGAUUAACA,0.0199 ± 0.0051
16,UAGACUGUCACCUUGUCUGAGAGAUUAAGA,0.316 ± 0.046
17,AUCACAGUCACCUUCUCUGAGAGAUUAAGA,0.0775 ± 0.013
18,UAGACUGUCACCUUCCCUGAGAGAUUAACA,0.356 ± 0.043
19,UAGACUGUCACCUUCAGAGAGAGAUUAACA,0.00784 ± 0.005
20,UAGACUGUCACCUUCUCUGAGAGUAUAACA,0.0614 ± 0.011
21,UAGUGUGUCACCUUCUCUGUCAGAUUAACA,0.00812 ± 0.0039
22,UAGUCUGUCUCCUACUCUGAGAGAUUAACA,0.647 ± 0.041
23,UACACUGUCACCUUCUCUGAGAGUAUUAACA,0.421 ± 0.046
24,UACACUGUCACCUUCUGUGUGAGAUUAACA,0.0849 ± 0.012
